Paper PMC4336329 (PLoS ONE, 2015)
Among all 310,000 compounds or so, about 2,200 (0.71%) showed an effect of 50% or more. The effect is printed as a negative number. This is one part of the list.

Molecular target: human ether-à-go-go-related gene (hERG) potassium channel (human, UniProt Q12809)
Assay: primary screen, population patch clamp on CHO cells stably expressing hERG

Sequence of human ether-à-go-go-related gene (hERG) potassium channel (Q12809 whole entry, looked up): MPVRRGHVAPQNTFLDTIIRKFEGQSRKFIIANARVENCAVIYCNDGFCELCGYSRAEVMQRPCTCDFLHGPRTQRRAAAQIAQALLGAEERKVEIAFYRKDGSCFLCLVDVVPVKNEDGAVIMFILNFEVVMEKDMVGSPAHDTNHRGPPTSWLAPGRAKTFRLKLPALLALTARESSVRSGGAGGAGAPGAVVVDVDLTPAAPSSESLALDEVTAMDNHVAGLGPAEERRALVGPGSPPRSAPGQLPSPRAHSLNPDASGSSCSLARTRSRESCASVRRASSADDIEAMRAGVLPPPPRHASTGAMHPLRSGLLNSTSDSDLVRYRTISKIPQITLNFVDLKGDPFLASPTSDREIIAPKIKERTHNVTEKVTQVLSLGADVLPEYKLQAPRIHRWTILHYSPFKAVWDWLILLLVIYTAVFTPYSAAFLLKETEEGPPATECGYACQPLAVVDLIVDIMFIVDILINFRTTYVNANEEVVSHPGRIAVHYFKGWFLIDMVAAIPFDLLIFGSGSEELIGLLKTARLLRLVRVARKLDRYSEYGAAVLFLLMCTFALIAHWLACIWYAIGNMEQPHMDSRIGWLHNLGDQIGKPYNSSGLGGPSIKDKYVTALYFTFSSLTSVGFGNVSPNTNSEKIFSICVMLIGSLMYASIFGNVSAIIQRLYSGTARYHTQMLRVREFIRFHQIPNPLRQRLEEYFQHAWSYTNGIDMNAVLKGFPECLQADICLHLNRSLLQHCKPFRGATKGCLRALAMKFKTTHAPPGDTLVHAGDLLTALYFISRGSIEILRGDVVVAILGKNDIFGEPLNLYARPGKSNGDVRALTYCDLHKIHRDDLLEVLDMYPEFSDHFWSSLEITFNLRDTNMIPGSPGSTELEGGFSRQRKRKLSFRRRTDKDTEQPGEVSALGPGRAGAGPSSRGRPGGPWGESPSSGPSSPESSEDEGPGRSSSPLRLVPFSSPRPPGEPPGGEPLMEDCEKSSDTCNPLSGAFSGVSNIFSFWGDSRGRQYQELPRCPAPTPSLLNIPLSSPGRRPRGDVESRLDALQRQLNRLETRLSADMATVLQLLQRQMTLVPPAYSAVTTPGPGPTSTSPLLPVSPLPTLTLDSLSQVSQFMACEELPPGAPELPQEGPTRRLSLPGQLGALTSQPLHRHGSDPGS

SMILES	hERG current change (%, negative = inhibition) at 1uM [%]
Cc1cc(C(=O)Nc2cc(C(F)(F)F)ccc2N2CCOCC2)no1	6.68
CN(C)c1ccc(P(=O)(OCc2ccccc2)C(O)c2ccc(Br)cc2)cc1 (stereo not shown)	9.48
COC(=O)Nc1sc2c(c1C(N)=O)CCCCCC2	13
COC(=O)[C@@]1(Cc2ccc(OC)cc2)[C@H]2c3cc(C(=O)N(C)C)n(CCSCCO)c3C[C@H]2CN1C(=O)c1ccccc1	11.5
Cc1ccc(NS(=O)(=O)c2cccc([N+](=O)[O-])c2)nc1	13.1
O=Cc1ccccc1OS(=O)(=O)c1ccccc1	8.42
CCCc1cc(=O)oc2cc(OCC(=O)Nc3ccc(S(N)(=O)=O)cc3)ccc12	9.5
N#CCCN(C(=O)COC(=O)C1CCN(S(=O)(=O)c2ccc3c(c2)OCCO3)CC1)c1ccccc1	7.27
O=C(COC(=O)c1cc(-c2cccs2)nn1-c1ccccc1)Nc1ccc(F)c([N+](=O)[O-])c1	6.55
CCC(=O)OC1(C)C(=O)C=C2C=C(CCCCNC(=O)OC(C)(C)C)OC=C2C1=O (stereo not shown)	7.75
COc1ccc2c(c1)[nH]c1c(=O)n(CCN3CCCC3)cnc12	-17.4
O=C(NC(=O)c1c(F)cccc1F)O/N=C1\CCCc2occc21	14.5
CN(CCC#N)C(=O)COC(=O)/C=C/c1cccs1	11.9
CCN(CC)CCNC(=O)c1sc2ncn(CC(=O)Nc3ccc(C)c(Cl)c3)c(=O)c2c1C	-2.5
COC(=O)[C@H](C)NC(=O)Nc1ccc(OC)c(OC)c1	7.67
NC(=O)C1CCN(C(=O)CSc2ncccn2)CC1	12
O=C1NC[C@H](CC2CCCCC2)N(CC2CCCCC2)C1=O	4.79
COc1ccc(N2CCN(CCCNC(=O)c3cc4sccc4n3C)CC2)cc1	-77.7
COc1ccc(CC(=O)NNS(=O)(=O)c2cccc([N+](=O)[O-])c2)cc1OC	16
CCOC(=O)C(NC(=O)c1ccc(Cl)cc1Cl)(Nc1ccc(C)cc1)C(F)(F)F (stereo not shown)	9.22
Cc1cc2c(cc1C)CSC(c1ccc(O)cc1)SC2	12.5
Cc1c(C)c(C)c(S(=O)(=O)n2[nH]c(=O)c(CCO)c2C)c(C)c1C	4.43

SMILES	hERG current change (%, negative = inhibition) at 1uM [%]
COCC1CCN(C(=O)c2ccc3oc(Cc4ccccc4)nc3c2)C1 (stereo not shown)	3.37
C/C(=N\Nc1nc2ccccc2[nH]1)c1ccc2c(c1)OCCO2	0.523
NNC(=O)C(Cc1c[nH]c2ccccc12)NC(=O)c1ccccc1 (stereo not shown)	17.5
CC(C)(C)C1CCc2c(sc(N)c2C(N)=O)C1 (stereo not shown)	7.56
COc1ccc(CC(=O)Nc2nc(-c3cc(OC)ccc3OC)cs2)cc1	13.1
CCOc1ccc(NC(=O)N2CCC(NC(=O)C(Cc3cccc(F)c3)NC(C)=O)CC2)cc1 (stereo not shown)	15.7
COc1cc2c(cc1OC)CN(c1ccc(-c3ccccc3OC)nn1)CC2	10.2
COc1ccc(N2CCN(C(CNC(=O)C(=O)NCC3CCCO3)c3ccco3)CC2)cc1 (stereo not shown)	6.64
Cc1ccc(C(=O)c2c3ccc(C(F)(F)F)cc3[n+]([O-])n2CCC(N)=O)cc1	-28.8
CCn1cc(C(=O)NCCCN2CCCC(C)C2)c(=O)c2cc(S(=O)(=O)N3CCc4ccccc4C3)ccc21 (stereo not shown)	-64.2
O=C(CN1CCC(n2nnc3cc(F)ccc32)CC1)NCCc1nc2ccccc2[nH]1	3.57
CC1CCN(C(=O)c2[nH]cnc2C(=O)N[C@@H](CCCCNC(=O)OC(C)(C)C)C(=O)OC(C)(C)C)CC1	8.02
CCCN(CCC)CCNC(=O)CCC(=O)Nc1ccc2nc(N3CCN(C)CC3)cc(C)c2c1	10.5
COc1ccc2[n-]c(S(=O)Cc3ncc(C)c(OC)c3C)nc2c1.COc1ccc2[n-]c(S(=O)Cc3ncc(C)c(OC)c3C)nc2c1.[Mg+2] (stereo not shown) [49681830]	9.37
CCC(C)(C)NC(=O)C(c1cccnc1)N(C(=O)c1csnn1)c1ccc(C)cc1 (stereo not shown)	15.7
O=C(COc1ccccc1)NCCc1nc2ccccc2[nH]1	2.76
COc1ccc(-c2cc3ccccc3oc2=O)cc1NC(=O)c1cccnc1	-7.29
CCN(CC(=O)N1CCCCC1)S(=O)(=O)c1ccccc1	-10.3
Cc1ccc(C(=O)OCC(=O)N2C(C)CCCC2C)s1 (stereo not shown)	5.5
COc1ccc(CSC2=NCCN2)cc1Cl.Cl	-7.52
CC(C)c1ccc(NC(=O)c2cc(Br)ccc2Br)cc1	6.59
